From PubChem BioAssay AID624173 (National Center for Advancing Translational Sciences (NCATS), 2012)
The whole screen tested about 410,000 compounds, of which about 490 (0.12%) were called active. The shares of active, inactive and inconclusive entries below differ from those in the screen. Calls come from the whole dose curve; as a rule, active = well fitted inhibition curve with a large enough effect; inconclusive = small, poorly fitted or top-dose-only effect; inactive = flat fitted curve, though single readings scatter. A potency beside an inconclusive call is a rough fit, not a confirmed value.

target: pyruvate kinase (Trypanosoma brucei) (UniProt Q57TT1); assay: qHTS of Trypanosoma Brucei Inhibitors; settings: TbPYK enzyme, Kinase-Glo Plus ATP luminescence, 45 min; series mostly up to 76.8 µM; activity, negative = inhibition: at the top concentration; note: nearly all actives have a fitted effect of over 50% in size
How it was run: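 Luminescence from Kinase-Glo Plus, added after a 45-minute room-temperature reaction, served as the end-point read-out. The enzyme and substrate were preincubated with compound before ADP (130 uM final) initiated turnover. Concentration-effect curves came from normalized qHTS data.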
% is set by controls: 0 for no effect and ±100 for the full control effect; potency is the fitted concentration of half-maximal effect; tags give direction and shape of the fitted curve.

| Compound | activity, negative = inhibition | Potency |
| --- | --- | --- |
| COc1ccc(CCNC(=O)C2CC(c3ccc([N+](=O)[O-])cc3)=NO2)cc1 (stereo not given) | inactive: 4.6% |  |
| CCOc1ccc(OCc2cccc(C(=O)O)c2)cc1 |  | inconclusive: 39.8 µM [inhibitor, single point] |
| COc1ccccc1/C=C1/C(=O)N(c2ccccc2)N=C1C | inactive: -16.2% |  |
| O=C(/N=C1\NC(=O)C(F)(C(F)(F)F)S1)NC1CCCCC1 (stereo not given) |  | inconclusive: 35.5 µM [inhibitor, partial curve] |
| N#Cc1cc(-c2ccccc2)nn1-c1ccccc1 |  | active: 14.1 µM |
| Brc1cccc(C2Nc3cccc4cccc(c34)N2)c1 | inactive: -13.2% |  |
| COc1ccccc1NS(=O)(=O)c1cc(N)ccc1N1CCOCC1 |  | inconclusive: 28.2 µM [inhibitor, partial curve, poor fit] |
| COc1ccc(NC(=O)N2CC3(CCN(C(=O)c4ccncc4)CC3)C2)cc1 | inactive: -10.2% |  |
| O=C(CNc1ccc(Cl)c(C(F)(F)F)c1)N1CCN(S(=O)(=O)c2ccccc2)CC1 |  | inconclusive: 28.2 µM [inhibitor, single point] |
| COCCCNC(=O)C1CCC(Cn2c(=O)c3sccc3n(Cc3ccc(F)cc3)c2=O)CC1 (stereo not given) | inactive: 2.43% |  |
| COc1ccc(C(=O)Nc2nnc(C3=COCCO3)o2)cc1OC |  | inconclusive: 50.1 µM [inhibitor, single point] |
| Cn1c(-c2sccc2OCc2cccc(C(F)(F)F)c2)n[nH]c1=S |  | inconclusive: 3.98 µM [inhibitor, partial curve, poor fit] |
| COc1ccc(NC(=O)NCc2ccco2)c(OC)c1 |  | inconclusive: 25.1 µM [inhibitor, partial curve] |
| O=C(Nc1ccc2nc(-c3ccco3)c(-c3ccco3)nc2c1)N1CCN(c2ccccn2)CC1 |  | inconclusive: 22.4 µM [inhibitor, partial curve] |
| COc1ccc(Cc2n[nH]c(=S)n2Cc2ccccc2)cc1Cl |  | inconclusive: 11.2 µM [inhibitor, partial curve] |
| COc1cc(CNCCc2ccccc2)ccc1OCc1ccc(Cl)nc1 |  | inconclusive: 35.5 µM [inhibitor, partial curve, poor fit] |
| c1ccc2c(c1)OCC(c1nn3c(Cn4nnc5ccccc54)nnc3s1)O2 (stereo not given) |  | inconclusive: 0.891 µM [inhibitor, full curve, poor fit] |
| Cc1nc2c(nc1C)C(=O)c1ccccc1C2=O | inactive: -4.36% |  |
| CN(Cc1nc(Cc2cccc(F)c2)no1)CC1COCCO1 (stereo not given) | inactive: -11.1% |  |
| CCOC(=O)Cc1csc(-n2sc3ccccc3c2=O)n1 |  | inconclusive: 17.8 µM [inhibitor, partial curve, poor fit] |
| O=C1CC(N2CCN(c3ccc(O)cc3)CC2)C(=O)N1c1ccc2c(c1)OCO2 (stereo not given) |  | inconclusive: 31.6 µM [inhibitor, single point] |
| CC(C)=NNc1cnnc2ccc([N+](=O)[O-])cc12 |  | inconclusive: 50.1 µM [inhibitor, single point] |
| CCOc1cc(/C=C2/C(=O)ON=C2C)ccc1OCc1ccccc1 |  | inconclusive: 35.5 µM [inhibitor, partial curve, poor fit] |
| O=C1c2sc3nc4n(c(=O)c3c2CCC1Br)CCCCC4 (stereo not given) |  | inconclusive: 28.2 µM [inhibitor, partial curve, poor fit] |

| Compound | activity, negative = inhibition | Potency |
| --- | --- | --- |
| Cc1cc(Cl)ccc1OCC(=O)Nc1ccncc1 | inactive: -20.6% |  |
| CCCCCCSc1ccc([C@@H]2[C@@H]3C(=O)N(CC)C(=O)[C@@H]3[C@]3(C(=O)OC)CCCCN23)cc1OC |  | inconclusive: 50.1 µM [inhibitor, single point] |
| CN=c1scc(-c2ccccc2F)n1/N=C/c1ccc[nH]1 | inactive: -18.7% |  |
| Cc1ccc(C(=O)NNC(=O)Cc2ccccc2)cc1 |  | inconclusive: 50.1 µM [inhibitor, single point] |
| Cc1ccc(S(=O)(=O)c2nnn3c2nc(N2CCN(c4ccccc4F)CC2)c2ccccc23)cc1C | inactive: 4.88% [at 15.4 µM] |  |
| Fc1ccc(F)c(C2=NNC(=NCC3CCCO3)SC2)c1 (stereo not given) |  | inconclusive: 44.7 µM [inhibitor, single point] |
| Cc1[nH]c2ccccc2c1C(C[N+](=O)[O-])c1cccc(O)c1 (stereo not given) | inactive: 2.34% |  |
| N/C(=N\OC(=O)c1cccs1)c1ccccc1 |  | inconclusive: 28.2 µM [inhibitor, partial curve] |
| Cc1nc(SCC(=O)c2cccs2)c2oc3ccccc3c2n1 | inactive: -1.35% |  |
| N#C/C(=C/c1ccc(N2CCOCC2)o1)c1ccc(Br)cc1 |  | active: 25.1 µM |
| Cc1ccc(CN(CC2CCCO2)C(=O)CN2C(=O)C(C(C)C)Oc3ccccc32)o1 (stereo not given) |  | inconclusive: 25.1 µM [inhibitor, single point] |
| COc1ccc(OC)c(NC(=O)CSc2cn(CC(=O)N3CCOCC3)c3ccccc23)c1 | inactive: -8.92% |  |
| Cc1ccccc1-n1c(C)n[nH]c1=S |  | inconclusive: 15.8 µM [inhibitor, partial curve, poor fit] |
| COCC(C)N=C1NN=C(c2ccc(NC(C)=O)cc2)CS1 (stereo not given) |  | inconclusive: 50.1 µM [inhibitor, single point] |
| Cn1c(CSCc2ccc(Cl)cc2Cl)n[nH]c1=S |  | inconclusive: 28.2 µM [inhibitor, partial curve] |
| Cc1cccc(/C=N/n2c(-c3ccccc3)n[nH]c2=S)c1O |  | inconclusive: 2.82 µM [inhibitor, full curve] |
| CCCNC(=O)CSc1nnc(-c2ccco2)n1C |  | inconclusive: 39.8 µM [inhibitor, single point] |
| CC(C)CCNC(=S)Nc1ccccn1 |  | inconclusive: 39.8 µM [inhibitor, partial curve, poor fit] |
| CCOC(=O)C1=C(Cn2ccc(C(F)(F)F)n2)NC(=O)NC1c1ccc2c(c1)OCO2 (stereo not given) |  | inconclusive: 7.08 µM [inhibitor, full curve] |
| CC(C)(C)c1cc(-c2n[nH]c(=S)n2-c2ccccc2F)n[nH]1 |  | inconclusive: 7.08 µM [inhibitor, partial curve] |
| COc1ccc(CCCc2n[nH]c(=S)o2)c(C)c1 |  | inconclusive: 10 µM [inhibitor, partial curve, poor fit] |
| CCOc1ccc(Nc2nc3ccccc3n3nnnc23)cc1 | inactive: -1.12% |  |
| COC(=O)c1scc(-c2ccc(C)cc2)c1S(=O)(=O)Nc1cccc(C(F)(F)F)c1 | inactive: -25.8% |  |
| Cc1cccc(-c2nc3ccccc3c(=O)n2NC(=S)N(C)C)c1 |  | inconclusive: 17.8 µM [inhibitor, partial curve, poor fit] |

| Compound | activity, negative = inhibition | Potency |
| --- | --- | --- |
| O=C1C(=Cc2ccc(F)cc2)CCc2ccccc21 |  | inconclusive: 28.2 µM [inhibitor, partial curve] |
| Oc1ccccc1Oc1ncc(Br)c(Cl)n1 | inactive: 1.64% |  |
| COC(=O)c1ccc(NC(=O)c2c(NCc3ccc(C)o3)sc3c2CCCC3)cc1 |  | inconclusive: 12.6 µM [inhibitor, partial curve, poor fit] |
| C(=N\Nc1nc2ccccc2[nH]1)/c1ccccn1 |  | inconclusive: 39.8 µM [inhibitor, single point] |
| CCCCn1nnnc1C1(C)CCC(=O)N1CCCn1ccnc1 (stereo not given) |  | inconclusive: 35.5 µM [inhibitor, partial curve, poor fit] |
| S=c1nc[nH]c2c1ncn2-c1ccc(Cl)cc1 |  | inconclusive: 11.2 µM [inhibitor, partial curve] |
| CCN(C(=O)COC(=O)c1cc(S(=O)(=O)N(C)C)ccc1Cl)C1CCS(=O)(=O)C1 (stereo not given) | inactive: 3.4% |  |
| O=c1c2cc(F)ccc2sn1-c1ccccc1Cl |  | active: 11.2 µM |
| C1=C(CCNc2ncnc3c2cnn3-c2ccccc2)CCCC1 |  | inconclusive: 50.1 µM [inhibitor, single point] |
| C[N+](C)(CCOc1ccccc1)Cc1cccs1 (tested in a mixture with another compound) | inactive: 3.32% |  |
| O=C(Nc1nc(-c2ccccc2)c(-c2ccccc2)o1)c1ccc(F)cc1 |  | inconclusive: 35.5 µM [inhibitor, partial curve, poor fit] |
| COc1cc(OC)cc(C(=O)N[C@H](C(=O)OCC(=O)NC(=O)c2cccn2C)C(C)C)c1 | inactive: 2.78% |  |
| O=[N+]([O-])c1cc(-c2ccc(C(=S)N3CCOCC3)o2)ccc1Cl |  | inconclusive: 22.4 µM [inhibitor, partial curve, poor fit] |
| COc1cc(NS(=O)(=O)c2ccc(N/C=C\C(=O)c3ccc(C)cc3)cc2)nc(OC)n1 |  | inconclusive: 50.1 µM [inhibitor, single point] |
| COc1ccc(-n2c(SCc3ccc([N+](=O)[O-])cc3)nnc2-c2ccccc2)cc1 |  | inconclusive: 14.1 µM [inhibitor, partial curve] |
| S=c1[nH]nc(CNc2ccc(Cl)cc2)n1Cc1ccccc1 |  | inconclusive: 28.2 µM [inhibitor, partial curve, poor fit] |
| COC(=O)c1ccccc1C(=O)N(c1ccccc1)c1ccccc1 |  | inconclusive: 39.8 µM [inhibitor, partial curve, poor fit] |
| CN1C(=O)C(=Cc2cccnc2)C(=O)N(C)C1=O |  | inconclusive: 39.8 µM [inhibitor, partial curve, poor fit] |
| FC(F)Oc1ccc(NC(=S)Nn2cnnc2)cc1 |  | inconclusive: 28.2 µM [inhibitor, partial curve, poor fit] |
| Cn1ncc(N)c1C(=O)Nc1cccc(C(F)(F)F)c1 | inactive: -0.462% |  |
| C[C@@H](NC(=O)c1[nH]cnc1C(=O)Nc1ccccc1F)c1ccccc1 | inactive: 3.95% |  |
| C=CCN1CCc2cccc3c2[C@H]1Cc1ccc(O)c(O)c1-3 |  | inconclusive: 35.5 µM [inhibitor, single point] |
